# The supplement of paper PMC8728848
# The list shows a part of the results.
# How the values were obtained:
# Assay in all cases: glycan array binding signal (z-score within array); higher = stronger binding
# Details in all cases: glycan notation: IUPAC condensed, linker removed
# [1] = molecular target: Gal(b1-3)[Fuc(a1-4)]GlcNAc(b1-3)Gal(b1-4)[Fuc(a1-3)]GlcNAc
# Method in brief: (§1)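 Arrays were curated from the Consortium for Functional Glycomics database, 3228 in total, and kept only where the protein sequence was available. Binding is expressed as a within-array Z-score. This score was averaged across arrays of the same protein sequence at different concentrations or buffers and across linkers, and negative values can be read as non-binding.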
# [2] = molecular target: Gal(b1-3)[GlcNAc(b1-6)]GalNAc
# Method in brief: as §1
# [3] = molecular target: Gal(b1-3)[Neu5Ac(a2-6)]GalNAc
# Method in brief: as §1
# [4] = molecular target: Gal(b1-3)[Neu5Ac(a2-6)]GlcNAc(b1-6)Gal(b1-4)Glc
# Method in brief: as §1
# [5] = molecular target: Gal(b1-3)[Neu5Ac(b2-6)]GalNAc
# Method in brief: as §1
# [6] = molecular target: Gal(b1-4)GalNAc(a1-3)[Fuc(a1-2)]Gal(b1-4)GlcNAc
# Method in brief: as §1
# [7] = molecular target: Gal(b1-4)GalNAc(b1-3)[Fuc(a1-2)]Gal(b1-4)GlcNAc
# Method in brief: as §1
# [8] = molecular target: Gal(b1-4)Glc
# Method in brief: as §1
# [9] = molecular target: Gal(b1-4)Glc6S
# Method in brief: as §1
# [10] = molecular target: Gal(b1-4)GlcNAc
# Method in brief: as §1
# [11] = molecular target: Gal(b1-4)GlcNAc(a1-6)Gal(b1-4)GlcNAc
# Method in brief: as §1
# [12] = molecular target: Gal(b1-4)GlcNAc(b1-2)Man(a1-3)[Gal(b1-4)GlcNAc(b1-2)Man(a1-6)]Man(b1-4)GlcNAc(b1-4)GlcNAc
# Method in brief: as §1
# [13] = molecular target: Gal(b1-4)GlcNAc(b1-3)Gal(b1-3)GlcNAc
# Method in brief: as §1
# [14] = molecular target: Gal(b1-4)GlcNAc(b1-3)Gal(b1-4)Glc
# Method in brief: as §1
# [15] = molecular target: Gal(b1-4)GlcNAc(b1-3)Gal(b1-4)GlcNAc
# Method in brief: as §1
# [16] = molecular target: Gal(b1-4)GlcNAc(b1-3)Gal(b1-4)GlcNAc(b1-3)Gal(b1-4)GlcNAc
# Method in brief: as §1
# [17] = molecular target: Gal(b1-4)GlcNAc(b1-3)Gal(b1-4)[Fuc(a1-3)]GlcNAc(b1-3)Gal(b1-4)[Fuc(a1-3)]GlcNAc
# Method in brief: as §1
# [18] = molecular target: Gal(b1-4)GlcNAc(b1-3)GalNAc
# Method in brief: as §1
# [19] = molecular target: Gal(b1-4)GlcNAc(b1-3)[Gal(b1-4)GlcNAc(b1-6)]Gal(b1-4)GlcNAc
# Method in brief: as §1
# [20] = molecular target: Gal(b1-4)GlcNAc(b1-3)[GlcNAc(b1-6)]Gal(b1-4)GlcNAc
# Method in brief: as §1
# [21] = molecular target: Gal(b1-4)GlcNAc(b1-6)Gal(b1-4)GlcNAc
# Method in brief: as §1
# [22] = molecular target: Gal(b1-4)GlcNAc(b1-6)Gal(b1-4)GlcNAc(b1-6)GalNAc
# Method in brief: as §1
# [23] = molecular target: Gal(b1-4)GlcNAc(b1-6)GalNAc
# Method in brief: as §1
# [24] = molecular target: Gal(b1-4)GlcNAc(b1-6)[Gal(b1-3)]GalNAc
# Method in brief: as §1
# [25] = molecular target: Gal3S(b1-3)GalNAc
# Method in brief: as §1
# [26] = molecular target: Gal3S(b1-3)GlcNAc
# Method in brief: as §1
# [27] = molecular target: Gal3S(b1-3)[Fuc(a1-4)]GlcNAc
# Method in brief: as §1
# [28] = molecular target: Gal3S(b1-4)Glc
# Method in brief: as §1
# [29] = molecular target: Gal3S(b1-4)Glc6S
# Method in brief: as §1
# [30] = molecular target: Gal3S(b1-4)GlcNAc
# Method in brief: as §1
# [31] = molecular target: Gal3S(b1-4)GlcNAc6S
# Method in brief: as §1
# [32] = molecular target: Gal3S(b1-4)[Fuc(a1-3)]Glc
# Method in brief: as §1
# [33] = molecular target: Gal3S4S(b1-4)GlcNAc
# Method in brief: as §1
# [34] = molecular target: Gal3S6S(b1-4)GlcNAc
# Method in brief: as §1
# [35] = molecular target: Gal3S6S(b1-4)GlcNAc6S
# Method in brief: as §1
# [36] = molecular target: Gal4S(b1-4)GlcNAc
# Method in brief: as §1
# [37] = molecular target: Gal4S6S(b1-4)GlcNAc
# Method in brief: as §1
# [38] = molecular target: Gal6S(b1-4)Glc
# Method in brief: as §1
# [39] = molecular target: Gal6S(b1-4)Glc6S
# Method in brief: as §1
# [40] = molecular target: Gal6S(b1-4)GlcNAc
# Method in brief: as §1
# [41] = molecular target: Gal6S(b1-4)GlcNAc6S
# Method in brief: as §1
# [42] = molecular target: GalNAc(a1-3)Gal
# Method in brief: as §1
# [43] = molecular target: GalNAc(a1-3)GalNAc
# Method in brief: as §1
# [44] = molecular target: GalNAc(b1-3)Gal
# Method in brief: as §1
# [45] = molecular target: GalNAc(b1-3)Gal(a1-4)Gal(b1-4)GlcNAc
# Method in brief: as §1
binder,measurement,setting,value
MD-2 (Homo sapiens) (protein) MLPFLFFSTLFSSIFTEAQKQYWVCNSSDASISYTYCDKMQYPISINVNPCIELKGSKGLLHIFYIPRRDLKQLYFNLYITVNTMNLPKRKEVICRGSDDDYSFCRALKGETVNTTISFSFKGIKFSKGKYKCVVEAISGSPEEMLFCLEFVILHQPNSN,glycan array binding signal (z-score),[1],-0.131
same,glycan array binding signal (z-score),[2],-0.346
same,glycan array binding signal (z-score),[3],-0.339
same,glycan array binding signal (z-score),[4],-0.334
same,glycan array binding signal (z-score),[5],-0.096
same,glycan array binding signal (z-score),[6],-0.434
same,glycan array binding signal (z-score),[7],-0.457
same,glycan array binding signal (z-score),[8],-0.282
same,glycan array binding signal (z-score),[9],0.057
same,glycan array binding signal (z-score),[10],-0.259
same,glycan array binding signal (z-score),[11],-0.39
same,glycan array binding signal (z-score),[12],-0.364
same,glycan array binding signal (z-score),[13],0.081
same,glycan array binding signal (z-score),[14],-0.302
same,glycan array binding signal (z-score),[15],-0.144
same,glycan array binding signal (z-score),[16],0.742
same,glycan array binding signal (z-score),[17],-0.215
same,glycan array binding signal (z-score),[18],-0.391
same,glycan array binding signal (z-score),[19],-0.336
same,glycan array binding signal (z-score),[20],-0.262
same,glycan array binding signal (z-score),[21],-0.09
same,glycan array binding signal (z-score),[22],-0.093
same,glycan array binding signal (z-score),[23],-0.458
same,glycan array binding signal (z-score),[24],-0.355
same,glycan array binding signal (z-score),[25],-0.242
same,glycan array binding signal (z-score),[26],-0.194
same,glycan array binding signal (z-score),[27],-0.177
same,glycan array binding signal (z-score),[28],-0.187
same,glycan array binding signal (z-score),[29],2.59
same,glycan array binding signal (z-score),[30],-0.103
same,glycan array binding signal (z-score),[31],1.81
same,glycan array binding signal (z-score),[32],-0.223
same,glycan array binding signal (z-score),[33],3.89
same,glycan array binding signal (z-score),[34],0.262
same,glycan array binding signal (z-score),[35],6.6
same,glycan array binding signal (z-score),[36],-0.043
same,glycan array binding signal (z-score),[37],1.34
same,glycan array binding signal (z-score),[38],-0.063
same,glycan array binding signal (z-score),[39],6.38
same,glycan array binding signal (z-score),[40],-0.156
same,glycan array binding signal (z-score),[41],3.27
same,glycan array binding signal (z-score),[42],-0.444
same,glycan array binding signal (z-score),[43],-0.345
same,glycan array binding signal (z-score),[44],-0.354
same,glycan array binding signal (z-score),[45],-0.373
